# From article PMC4336329 (PLoS ONE, 2015)
# In all, about 310,000 compounds went through this assay and about 14,000 (4.5%) showed an effect of 50% or more. The effect is printed as a negative number. The list shows a part of the results.
# Biological target: human ether-à-go-go-related gene (hERG) potassium channel (human, UniProt Q12809)
# Test: primary screen, population patch clamp on CHO cells stably expressing hERG
# 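Also: peak tail current of the secondary pulse compared with the same well before compound.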
# Sequence of human ether-à-go-go-related gene (hERG) potassium channel (Q12809 whole entry, looked up): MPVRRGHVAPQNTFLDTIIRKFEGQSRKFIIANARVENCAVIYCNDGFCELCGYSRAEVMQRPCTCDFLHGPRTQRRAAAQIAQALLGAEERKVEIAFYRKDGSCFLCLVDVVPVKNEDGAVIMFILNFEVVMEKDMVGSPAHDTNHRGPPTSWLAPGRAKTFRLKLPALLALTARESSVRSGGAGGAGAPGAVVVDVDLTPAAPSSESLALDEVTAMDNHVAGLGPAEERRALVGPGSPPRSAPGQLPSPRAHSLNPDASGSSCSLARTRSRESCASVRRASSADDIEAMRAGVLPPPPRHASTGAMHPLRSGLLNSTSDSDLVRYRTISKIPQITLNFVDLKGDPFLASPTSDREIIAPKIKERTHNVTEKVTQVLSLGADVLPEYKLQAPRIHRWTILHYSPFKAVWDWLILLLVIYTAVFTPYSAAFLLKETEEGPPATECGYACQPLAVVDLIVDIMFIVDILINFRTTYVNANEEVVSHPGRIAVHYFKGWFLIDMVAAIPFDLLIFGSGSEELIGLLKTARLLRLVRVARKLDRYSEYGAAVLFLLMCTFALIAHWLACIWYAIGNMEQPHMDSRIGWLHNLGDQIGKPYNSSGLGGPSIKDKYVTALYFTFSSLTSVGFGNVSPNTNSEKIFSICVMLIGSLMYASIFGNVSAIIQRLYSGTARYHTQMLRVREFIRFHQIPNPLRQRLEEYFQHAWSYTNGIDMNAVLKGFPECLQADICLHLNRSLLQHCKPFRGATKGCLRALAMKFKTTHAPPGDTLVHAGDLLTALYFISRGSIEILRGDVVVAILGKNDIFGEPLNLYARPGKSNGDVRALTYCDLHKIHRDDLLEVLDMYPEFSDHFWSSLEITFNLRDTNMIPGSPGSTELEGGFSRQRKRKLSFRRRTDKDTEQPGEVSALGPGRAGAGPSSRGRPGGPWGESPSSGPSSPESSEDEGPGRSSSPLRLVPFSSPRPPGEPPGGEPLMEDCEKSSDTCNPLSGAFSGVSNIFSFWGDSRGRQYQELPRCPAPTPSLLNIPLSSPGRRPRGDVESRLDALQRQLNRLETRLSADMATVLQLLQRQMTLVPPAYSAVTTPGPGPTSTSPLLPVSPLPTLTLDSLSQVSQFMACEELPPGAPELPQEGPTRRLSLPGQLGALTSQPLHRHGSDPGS
row,SMILES,"hERG current change (%, negative = inhibition) at 10uM [%]"
1,O=C(NCc1ccccc1)c1cccc(COc2ccccc2Cl)c1,-6.41
2,O=Cc1nc(-c2ccc(Cl)cc2)n2ccccc12,-19.3
3,Cc1c(Cl)cccc1-n1c(SCC(=O)N(C)Cc2ccccc2)nnc1-c1ccncc1,-49.5
4,O=C(CN1CCCCC1)N/N=C/c1cccc(Cl)c1,-35.6
5,O=S(=O)(c1cccc(S(=O)(=O)N2CCN(c3ncccn3)CC2)c1)N1CCOCC1,-8.31
6,Cc1ccc(OCc2cc(C(=O)N3CCC(c4ccccc4Cl)C3)no2)cc1C (stereo not shown),-3.92
7,Cn1ncc(Br)c1NC(=O)CSc1ccc(Cl)cc1,4.1
8,CN(CC(=O)Nc1ccccc1Br)C(=O)c1ccc2c(=O)n3c(nc2c1)CCC3,-2.34
9,Oc1ccc2c(ccc3[nH]cnc32)c1,25.8
10,O=C(CCS(=O)(=O)c1ccc(Cl)cc1)N1CCN(c2ccccc2F)CC1,-12.2
11,Cc1ccnc(NS(=O)(=O)c2ccc(NC(=O)COc3ccccc3)cc2)n1,31.3
12,Cc1cccc(N2CCN(C(=O)c3ccc(NS(=O)(=O)c4c(C)noc4C)cc3)CC2)c1C,-11.7
13,CC(=O)Nc1ccc(NC(=O)C(C)Oc2ccc(Cl)cc2Cl)cc1 (stereo not shown),3.61
14,O=C(C[n+]1ccccc1)N1CCCc2ccccc21.[Cl-],18.3
15,Cn1cc(SCC(=O)N2CCOCC2)c2ccccc21,3.8
16,CCC(C)C(=O)Nc1nc(C)c(-c2csc(Nc3cc(Cl)ccc3OC)n2)s1 (stereo not shown),1.5
17,CCOc1ccccc1NC(=O)c1cccc(NC(=O)CC(c2ccccc2)c2ccccc2)c1,-67.1
18,O=C(NC(=S)N1CCN(c2ccc([N+](=O)[O-])cc2)CC1)c1ccccc1,0.58
19,O=c1[nH]c2ccccc2cc1-c1nnn(-c2ccc(F)cc2)n1,-8.71
20,COc1ccc(Br)cc1C(=O)NC(=S)Nc1cc(-c2nc3ccccc3[nH]2)ccc1C,3.54
21,CC(=O)Nc1ccc(S(=O)(=O)Nc2cccc(-c3nc4ccccc4o3)c2)cc1,-14.8
22,Cc1ccc(S(=O)(=O)N2CCC(C(=O)NCC3CCCO3)CC2)cc1 (stereo not shown),3.13

row,SMILES,"hERG current change (%, negative = inhibition) at 10uM [%]"
1,CCCCn1c(N)c(N(CC)C(=O)CSCc2ccc(C)cc2)c(=O)[nH]c1=O,2.96
2,Cn1c(C(=O)O)c(C=O)c2ccccc21,47
3,CCC(=O)NNc1nc2c(F)cccc2s1,22.5
4,Cc1ccc(NC(=O)COC(=O)C2=COCCO2)cc1,13.3
5,Cc1ccc(SCc2cn3cccnc3n2)cc1,11.1
6,Cc1nc(C)n(C(C)CNC(=O)c2cccc(Br)c2)n1 (stereo not shown),13.5
7,COC(=O)c1sccc1NC(=O)c1cccc(F)c1,-4.99
8,CCOC(=O)c1ccc(N2C(=O)C(O)=C(C(C)=O)C2c2ccccn2)cc1 (stereo not shown),6
9,NC(=Nc1ccc(N)cc1)C(N)=Nc1ccc(N)cc1,11.4
10,Cc1cc(=O)oc2c3c(cc(OCC(=O)NCCCn4ccnc4)c12)OC(C)(C)CC3,-32.1
11,CCc1ccc(C(=O)COC(=O)c2cc([N+](=O)[O-])ccc2N2CCOCC2)cc1,-9.49
12,CC1CN(C2=Nc3cccc4cccc2c34)CC(C)O1 (stereo not shown),-47.6
13,C=C1C2C[C@H](O)C(C)(C)[C@@]2(O)[C@H](O)C[C@]23C[C@@](C)(O)[C@H](CC[C@H]12)[C@H]3OC(C)=O (stereo partly shown),13.4
14,O=C(NCC(O)COc1ccc([N+](=O)[O-])cc1)Nc1ccccc1 (stereo not shown),-49.4
15,Cc1cc(C)cc(C(=O)NCC(=O)N(C)CCOc2ccccc2)c1,-7.3
16,CCN(c1ccc(OC)cc1)S(=O)(=O)c1nnc(NC(=O)c2ccco2)s1,17
17,CS(=O)(=O)N(CC(=O)N1CCN(c2ccccc2)CC1)c1ccccc1Cl,-3.11
18,COc1cccc(/C=N/NC(=O)CC(C)O)c1OC/C=C/c1ccccc1 (stereo not shown),6.7
19,COc1ccc(OC)c(N2C(=O)NC(=O)/C(=C\c3ccc([N+](=O)[O-])s3)C2=O)c1,15.7
20,O=C(CCCc1ccccc1)Nc1cccc(C(=O)O)c1,17.9
21,COc1ccc(S(=O)(=O)Nc2cccc(S(=O)(=O)N3CCCC3)c2)cc1OC,-9.24
22,O=C(c1ccc(CS(=O)(=O)c2ccc(Br)cc2)o1)N1CCCC1,-47.3

row,SMILES,"hERG current change (%, negative = inhibition) at 10uM [%]"
1,Cc1ccc(NC(=O)Cn2nc(C)c([N+](=O)[O-])c2C)cc1C,35.7
2,O=C(Nc1ccccc1N1CCCCC1)c1ccc(Cl)c([N+](=O)[O-])c1,5.3
3,O=C(O)c1c(Cl)c(Cl)c(Cl)c(Cl)c1C(=O)N1CCCCCC1,12.6
4,CCn1c(SCC(=O)Nc2cc(OC)ccc2OC)nnc1C1CCCCC1,-13.5
5,CCN(CC)NC(=O)Nc1ccccc1,11.4
6,c1ccc(OCCSc2ncnc3nc[nH]c23)cc1,-7.82
7,CCCCC1=CC2=CC(=O)C(C)(OC(=O)CC)C(=O)C2=CN1C(CO)CO (stereo not shown),11.5
8,O=c1c(-c2ccccc2)c(O)cc(-c2ccncc2)n1-c1ccc(Cl)cc1,25
9,C=CCn1c(SCC(=O)c2ccc(O)c(O)c2)nnc1-c1cccc(Cl)c1,3.69
10,CC1(C)S[C@@H]2[C@H](NC(=O)Cc3ccccc3)C(=O)N2[C@H]1C(=O)[O-].[K+],4.46
11,O=C(NCCc1ccc(Cl)cc1)c1cc(=O)[nH]c2ccccc12,5.77
12,O=C(O)c1ccc(Nc2ccc([N+](=O)[O-])c3nonc23)cc1,19.1
13,CC1(C)CC(=O)C(C=Nc2ccc(O)cc2)=C(O)C1,-4.92
14,O.O=C(CCc1ccc(O)cc1)c1c(O)cc(O)cc1O[C@@H]1O[C@H](CO)[C@@H](O)[C@H](O)[C@H]1O,4.04
15,COc1ccccc1C(=O)Nc1ccc(C(=O)Nc2ccccc2C(=O)O)cc1,21.8
16,Cc1nn(C)cc1C1C(C#N)=C(N)N(c2ccc(F)c([N+](=O)[O-])c2)C2=C1C(=O)CCC2 (stereo not shown),11
17,COc1ccc(CC(=O)OCC(=O)NCCc2ccccc2)cc1OC,-6.19
18,O=C(O)CSCC(=O)Nc1ccc(Cl)cc1C(F)(F)F,6.24
19,Cc1nn(CC(=O)Nc2cc(S(=O)(=O)N(C)C)ccc2Cl)c(C)c1[N+](=O)[O-],-20.9
20,CCCn1nnc(NC(=O)c2cccc(OCC(C)C)c2)n1,-3.93
21,Cc1ccc(NC(=O)c2ccc(S(=O)(=O)N3CCOCC3)cc2)cc1,6.56
22,CC1(C)CC(=O)c2sc(NC(=O)c3ccccc3)nc2C1,2.82

row,SMILES,"hERG current change (%, negative = inhibition) at 10uM [%]"
1,CN(CC(O)COc1ccc2ccccc2c1)C1CCCCC1.Cl (stereo not shown),-45.2
2,CCCCN(C(=O)c1cc(S(=O)(=O)N2CCCCCC2)ccc1OC)c1ccccc1,-39
3,NC(=O)CSc1nnnn1-c1ccc(OC(F)(F)F)cc1,-14.4
4,CCN(CCO)Cc1cc(=O)oc2c(C)c(C)ccc12,-6.8
5,CSCCC(NS(=O)(=O)c1ccccc1F)C(=O)Nc1cccc(C)n1 (stereo not shown),-0.755
6,COC(=O)c1ccc2c(c1)C(C)(C)C(/C=C/c1ccccc1O)=[N+]2C.[I-],-69.5
7,CCOC(=O)N1CCN(c2c(NCCCN(C)c3ccccc3)c(=O)c2=O)CC1,1.44
8,COc1cc(SC)ccc1C(=O)N1CCCCCC1,17.3
9,O=C1/C(=C/c2cccc(Cl)c2)CSc2sccc21,10.1
10,NS(=O)(=O)c1ccc(CNC(=O)c2cc(=O)[nH]c3ccccc23)cc1,18.3
11,CCc1ccc(NC(=O)CCC(=O)Nc2nnc(C(C)C)s2)cc1,21.6
12,CCCC1(C(=O)OC)NC(c2ccco2)C2C(=O)N(C)C(=O)C21 (stereo not shown),8.64
13,Cc1cccc(Cn2cnc3c(nnn3Cc3ccc(F)cc3)c2=O)c1,-10.6
14,CN(Cc1cn(-c2ccccc2)nc1-c1cc2ccccc2o1)C(=O)CCC(=O)O,1.91
15,O=C(c1ccco1)N1CCN(Cc2cc(=O)c(OCc3c(F)cccc3Cl)co2)CC1,-58
16,CCCCCC(=O)N(O)C1CC(=O)N(c2ccccc2)C1=O (stereo not shown),9.06
17,Cc1cccc(NC(=O)CC2C(=O)NCCN2C(=S)Nc2ccccc2)c1 (stereo not shown),1.17
18,Cc1ncc(CN2CCCC(C(=O)c3cccc(Cl)c3)C2)s1 (stereo not shown),-13.6
19,CCC(=O)N(CCC(Cc1ccccc1)c1ccco1)Cc1ccco1 (stereo not shown),-1.81
20,CC(C)Cc1ccc(CN2CCCC(NC(=O)CCN3CCCO3)C2)cc1 (stereo not shown),-43.4
21,Cc1ccc(C(=O)NCCNC(=O)c2ccco2)cn1,16.4
22,CSCCC(C(=O)N1CC2(C)CC1CC(C)(C)C2)N1C(=O)c2ccccc2C1=O (stereo not shown),-24.8
